Measured values reported in PMC4336329 (PLoS ONE, 2015).
Hit rate of the full screen: of about 310,000 compounds, about 14,000 (4.5%) showed an effect of 50% or more. Effects have a minus sign here. The list shows a part of the results.

Target: human ether-à-go-go-related gene (hERG) potassium channel (human, UniProt Q12809)
Test: primary screen, population patch clamp on CHO cells stably expressing hERG
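Also: peak tail current of the secondary pulse compared with the same well before compound.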

Sequence of human ether-à-go-go-related gene (hERG) potassium channel (Q12809 whole entry, looked up): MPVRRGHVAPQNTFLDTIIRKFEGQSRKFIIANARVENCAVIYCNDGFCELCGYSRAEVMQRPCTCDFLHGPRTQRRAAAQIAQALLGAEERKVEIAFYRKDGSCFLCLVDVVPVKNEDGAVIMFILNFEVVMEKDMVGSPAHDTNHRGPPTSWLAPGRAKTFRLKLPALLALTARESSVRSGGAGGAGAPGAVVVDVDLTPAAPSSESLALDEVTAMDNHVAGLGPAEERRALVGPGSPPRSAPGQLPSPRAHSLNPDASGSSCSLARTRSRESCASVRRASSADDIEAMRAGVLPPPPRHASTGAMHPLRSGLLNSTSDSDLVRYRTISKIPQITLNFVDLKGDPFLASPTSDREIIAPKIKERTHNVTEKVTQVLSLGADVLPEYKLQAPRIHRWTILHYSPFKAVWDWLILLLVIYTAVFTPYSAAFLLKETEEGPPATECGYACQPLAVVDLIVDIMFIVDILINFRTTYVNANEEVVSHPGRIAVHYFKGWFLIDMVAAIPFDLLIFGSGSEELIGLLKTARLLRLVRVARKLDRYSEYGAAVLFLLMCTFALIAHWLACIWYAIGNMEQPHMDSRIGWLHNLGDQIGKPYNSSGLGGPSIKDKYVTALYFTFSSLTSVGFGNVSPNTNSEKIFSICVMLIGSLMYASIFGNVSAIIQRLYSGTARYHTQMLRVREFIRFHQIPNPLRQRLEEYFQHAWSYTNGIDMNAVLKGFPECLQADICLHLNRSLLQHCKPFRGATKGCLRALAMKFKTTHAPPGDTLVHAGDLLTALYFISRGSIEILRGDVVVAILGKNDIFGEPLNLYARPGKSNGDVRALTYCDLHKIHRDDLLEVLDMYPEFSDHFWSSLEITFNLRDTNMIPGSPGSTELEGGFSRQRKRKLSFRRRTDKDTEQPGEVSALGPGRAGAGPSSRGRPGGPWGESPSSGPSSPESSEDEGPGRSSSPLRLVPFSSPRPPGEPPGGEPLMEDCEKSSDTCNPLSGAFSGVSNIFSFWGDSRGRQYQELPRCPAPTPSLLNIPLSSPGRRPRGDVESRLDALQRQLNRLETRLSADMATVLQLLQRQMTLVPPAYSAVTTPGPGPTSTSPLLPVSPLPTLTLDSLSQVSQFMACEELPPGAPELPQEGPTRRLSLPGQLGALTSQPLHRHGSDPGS

**Q.** With `O=C(CSc1nc(=O)n(CCCN2CCOCC2)c2c1CCC2)Nc1ccc(F)cc1` as the compound, how does the “hERG current change (%, negative = inhibition) at 10uM” value read?
**A.** -39.5%

**Q.** With `CN(C)C(=S)Nc1cccc(F)c1` as the compound, how does the “hERG current change (%, negative = inhibition) at 10uM” value read?
**A.** -1.26%

**Q.** With `COc1ccc(-c2cc(C(=O)NCc3ccco3)c3ccccc3n2)cc1` as the compound, how does the “hERG current change (%, negative = inhibition) at 10uM” value read?
**A.** -5.84%

**Q.** `Cc1cc(C)c(C(=O)COC(=O)c2cc([N+](=O)[O-])ccc2N2CCOCC2)cc1C` was tested. Which “hERG current change (%, negative = inhibition) at 10uM” value did it give?
**A.** -4.07%

**Q.** For `Cn1c(SCc2ccc(Cl)cc2)nnc1-c1ccc2nonc2c1`, which “hERG current change (%, negative = inhibition) at 10uM” value is on record?
**A.** 0.685%

**Q.** With `CCOc1cccc2sc(N3CCN(C(=O)c4ccc5ncsc5c4)CC3)nc12` as the compound, how does the “hERG current change (%, negative = inhibition) at 10uM” value read?
**A.** 2.18%

**Q.** For `CCOc1ccc(-c2cc(N)n(S(=O)(=O)c3ccc(OC)cc3)n2)cc1`, which “hERG current change (%, negative = inhibition) at 10uM” value is on record?
**A.** 10.7%

**Q.** With `CCOC(=O)N/N=C/c1ccc(N2CCOCC2)s1` as the compound, how does the “hERG current change (%, negative = inhibition) at 10uM” value read?
**A.** -28%

**Q.** How did the “hERG current change (%, negative = inhibition) at 10uM” value turn out when `O=S(=O)(c1ccccc1)c1nc(-c2ccco2)oc1N1CCCCCC1` was run?
**A.** -30.6%

**Q.** For `O=C(COc1ccccc1)N=C1SC2CS(=O)(=O)CC2N1Cc1ccccc1` (stereo not shown), which “hERG current change (%, negative = inhibition) at 10uM” value is on record?
**A.** 1.81%

**Q.** With `C/C(=N\NC(=O)c1ccc(-c2ccccc2)cc1)c1ccco1` as the compound, how does the “hERG current change (%, negative = inhibition) at 10uM” value read?
**A.** -19.1%

**Q.** How did the “hERG current change (%, negative = inhibition) at 10uM” value turn out when `COc1ccc(C)cc1S(=O)(=O)N(CC(=O)N1CCOCC1)Cc1ccccc1` was run?
**A.** -19.7%

**Q.** For `CCN(CC)c1ccc(NC(=O)CN2C(=O)CC(C)(C)S(=O)(=O)c3ccccc32)c(C)c1`, which “hERG current change (%, negative = inhibition) at 10uM” value is on record?
**A.** -1.01%

**Q.** `O=S(=O)(Nc1nc2ccccc2nc1N1CCN(c2ccccc2F)CC1)c1ccc(Cl)cc1` was tested. Which “hERG current change (%, negative = inhibition) at 10uM” value did it give?
**A.** 1.45%

**Q.** Which “hERG current change (%, negative = inhibition) at 10uM” value does the source give for `COc1cc(Cl)c(NS(=O)(=O)c2ccc(-c3ccc(=O)[nH]n3)o2)c(OC)c1` here?
**A.** 13.1%

**Q.** Which “hERG current change (%, negative = inhibition) at 10uM” value does the source give for `CCOC(=O)c1cnc2c(c(C)nn2C)c1Oc1ccccc1F` here?
**A.** 1.29%

**Q.** With `COc1ccc(OC)c(C(=O)CSc2nnc(Cc3cccs3)n2CCc2ccccc2)c1` as the compound, how does the “hERG current change (%, negative = inhibition) at 10uM” value read?
**A.** -21%

**Q.** With `O=C(O)c1cc(S(=O)(=O)N2CCCCC2)ccc1F` as the compound, how does the “hERG current change (%, negative = inhibition) at 10uM” value read?
**A.** -12.3%

**Q.** Which “hERG current change (%, negative = inhibition) at 10uM” value does the source give for `CC(C)(NO)/C(=N\O)c1ccccc1` here?
**A.** 23.2%

**Q.** For `COc1cc(C)ccc1S(=O)(=O)N1CCCCCC1`, which “hERG current change (%, negative = inhibition) at 10uM” value is on record?
**A.** -1.64%

**Q.** With `O=C(CCCOc1ccccc1)N1CCCCC1` as the compound, how does the “hERG current change (%, negative = inhibition) at 10uM” value read?
**A.** -5.84%

**Q.** With `O=C(O)CC1(CC(=O)NCc2cc(F)cc3c2OCOC3)CCCCC1` as the compound, how does the “hERG current change (%, negative = inhibition) at 10uM” value read?
**A.** 6.25%

**Q.** For `Cc1nc(-c2ccc(S(=O)(=O)N3CCN(CCc4ccccc4)CC3)s2)cs1`, which “hERG current change (%, negative = inhibition) at 10uM” value is on record?
**A.** 12.5%

**Q.** Which “hERG current change (%, negative = inhibition) at 10uM” value does the source give for `CCOc1ccccc1NC(=O)CSc1nc(=O)n(Cc2ccncc2)c2c1CCC2` here?
**A.** -36.3%

**Q.** How did the “hERG current change (%, negative = inhibition) at 10uM” value turn out when `CCOc1ccc(NC(=O)CC2C(=O)N(c3ccc(OC)cc3)C(=S)N2Cc2ccccn2)cc1` (stereo not shown) was run?
**A.** -29.5%

**Q.** For `COc1ccc(CNCCc2ccc3c(c2)OCO3)c(OC)c1OC.O=C(O)C(=O)O`, which “hERG current change (%, negative = inhibition) at 10uM” value is on record?
**A.** -29.9%

**Q.** `CCSc1nnc(-c2ccc(Cl)cc2)c2ccccc12` was tested. Which “hERG current change (%, negative = inhibition) at 10uM” value did it give?
**A.** 2.18%

**Q.** With `Cc1ccc(S(=O)(=O)N(Cc2cccc(C)c2)C(=O)N2CCN(C)CC2)cc1` as the compound, how does the “hERG current change (%, negative = inhibition) at 10uM” value read?
**A.** 19.2%

**Q.** Which “hERG current change (%, negative = inhibition) at 10uM” value does the source give for `O=C1CCC/C1=C/Nc1ccc2c(c1)OCO2` here?
**A.** 14.5%

**Q.** For `Cc1cccc(NC(=S)NC(=O)C2CC2)c1`, which “hERG current change (%, negative = inhibition) at 10uM” value is on record?
**A.** 4.59%

**Q.** How did the “hERG current change (%, negative = inhibition) at 10uM” value turn out when `Cc1csc(NC(=O)c2cc3c(s2)CCC3)n1` was run?
**A.** -5.99%

**Q.** How did the “hERG current change (%, negative = inhibition) at 10uM” value turn out when `Cc1cccc(C)c1NC(=O)c1sc(N)nc1-c1ccccc1` was run?
**A.** 7.39%

**Q.** With `O=C(NC1CC1)C1CC(=O)N(C2CCCCC2)C1` (stereo not shown) as the compound, how does the “hERG current change (%, negative = inhibition) at 10uM” value read?
**A.** 16.6%

**Q.** With `COc1ccc([C@H]2CC(=O)C=C(c3ccc4c(c3)OCCO4)C2)cc1` as the compound, how does the “hERG current change (%, negative = inhibition) at 10uM” value read?
**A.** 13.1%

**Q.** For `CC(C)C(NS(=O)(=O)c1cccs1)C(=O)NCc1ccccc1Cl` (stereo not shown), which “hERG current change (%, negative = inhibition) at 10uM” value is on record?
**A.** 0.166%

**Q.** How did the “hERG current change (%, negative = inhibition) at 10uM” value turn out when `O=C(NC1(C(F)(F)F)NC(=O)N(Cc2cccnc2)C1=O)c1ccccc1` (stereo not shown) was run?
**A.** 6.25%

**Q.** With `COc1cc(OC)cc(C(=O)N[C@H](C(=O)Nc2nc3c(s2)CCCC3)C(C)C)c1` as the compound, how does the “hERG current change (%, negative = inhibition) at 10uM” value read?
**A.** 6.76%

**Q.** How did the “hERG current change (%, negative = inhibition) at 10uM” value turn out when `COc1ccc(C(=O)NC(=S)NNC(=O)c2ccncc2)cc1Br` was run?
**A.** 7.08%

**Q.** With `CCCN1C2CCCC1CC(NC(=S)Nc1cccc(C)c1C)C2` (stereo not shown) as the compound, how does the “hERG current change (%, negative = inhibition) at 10uM” value read?
**A.** 5.16%

**Q.** Which “hERG current change (%, negative = inhibition) at 10uM” value does the source give for `c1ccn(-c2ncnc3sc4c(c23)CCCC4)c1` here?
**A.** -14.6%

**Q.** Which “hERG current change (%, negative = inhibition) at 10uM” value does the source give for `CC1Cc2ccccc2N1C(=O)COc1ccc2c(c1)OCO2` (stereo not shown) here?
**A.** -3.18%

**Q.** Which “hERG current change (%, negative = inhibition) at 10uM” value does the source give for `O=C(Cn1cnc2cc([N+](=O)[O-])ccc2c1=O)Nc1ccc2c(c1)OCO2` here?
**A.** 4.33%

**Q.** With `NS(=O)(=O)c1ccc(CCNC(=O)c2ccc(OCC3CCCO3)cc2)cc1` (stereo not shown) as the compound, how does the “hERG current change (%, negative = inhibition) at 10uM” value read?
**A.** 19.9%

**Q.** With `O=C(CN(Cc1ccc(Cl)cc1)C(=O)CN1C(=O)COc2ccccc21)NC1CCCC1` as the compound, how does the “hERG current change (%, negative = inhibition) at 10uM” value read?
**A.** 15%

**Q.** For `CCC(C)c1ccc2oc(-c3ccc(NC(=O)Cn4cnc5c(=O)n(C)c(=O)n(C)c54)cc3)nc2c1` (stereo not shown), which “hERG current change (%, negative = inhibition) at 10uM” value is on record?
**A.** 6.55%

**Q.** With `O=C(Nc1ccccc1)c1[nH]ncc1[N+](=O)[O-]` as the compound, how does the “hERG current change (%, negative = inhibition) at 10uM” value read?
**A.** -11.8%

**Q.** With `c1ccc2c(c1)C(=NCC1CCCO1)NC2=NCC1CCCO1` (stereo not shown) as the compound, how does the “hERG current change (%, negative = inhibition) at 10uM” value read?
**A.** -22.2%

**Q.** With `O=C(O)CCCN=Cc1c(O)c2ccccc2oc1=O` as the compound, how does the “hERG current change (%, negative = inhibition) at 10uM” value read?
**A.** 10.8%

**Q.** Which “hERG current change (%, negative = inhibition) at 10uM” value does the source give for `Cc1nn(C)c(C(=O)Nc2ccc(Br)cc2F)c1Br` here?
**A.** 24.9%

**Q.** How did the “hERG current change (%, negative = inhibition) at 10uM” value turn out when `Cn1nc(C(=O)NC2CCCCC2)c2ccccc2c1=O` was run?
**A.** -15.3%

**Q.** `O=C(Nc1cccc(-c2cn3ccccc3n2)c1)c1cccs1` was tested. Which “hERG current change (%, negative = inhibition) at 10uM” value did it give?
**A.** -19.9%

**Q.** Which “hERG current change (%, negative = inhibition) at 10uM” value does the source give for `O=S(=O)(c1ccccc1)N1CCN(c2cc(-c3ccccc3)nc3ncnn23)CC1` here?
**A.** -11.8%

**Q.** Which “hERG current change (%, negative = inhibition) at 10uM” value does the source give for `N#CC1(C#N)C(c2ccccc2)OC23CCCCCC2C1(C#N)C(=N)O3` (stereo not shown) here?
**A.** -23.4%

**Q.** How did the “hERG current change (%, negative = inhibition) at 10uM” value turn out when `Cc1cc(/C=N/NC(N)=S)c(O)c(/C=N/NC(N)=S)c1` was run?
**A.** 9.43%

**Q.** For `Cc1ccc(C)c(OCCCCn2ccnc2)c1`, which “hERG current change (%, negative = inhibition) at 10uM” value is on record?
**A.** -23%

**Q.** Which “hERG current change (%, negative = inhibition) at 10uM” value does the source give for `O.[O-][N+]12CCN(CC1)c1ccccc12` here?
**A.** 16.6%

**Q.** `O=c1cccccc1NCc1ccccc1` was tested. Which “hERG current change (%, negative = inhibition) at 10uM” value did it give?
**A.** -17.3%

**Q.** Which “hERG current change (%, negative = inhibition) at 10uM” value does the source give for `COC(=O)c1c(C)oc(C)c1S(=O)(=O)Nc1ccc(C(C)C)cc1` here?
**A.** 0.847%
